Test results: article PMC3727929 (Molecular Biology of the Cell, 2013)

Molecular target: the molecule itself
Test: SEC-MALS

B1: Dyn2 (S. cerevisiae dynein light chain), wild type, full length (natural protein)
chain: not shown
  stoichiometry N: 2
